# Source: the supplement of paper PMC11417369
# The list shows a part of the results.
# System: PfSIP2 AP2 domain 1 (GST-tagged)
# Assay: gcPBM binding intensity (ln(normalized median fluorescence intensity)); higher = stronger DNA binding
# Method in brief: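 In this array assay, P. falciparum DNA-binding domains with a GST tag, expressed in E. coli, were applied for 1 h to primer-extended double-stranded 36-bp intergenic genomic probes and negative controls on an Agilent 4 × 180k array. Bound protein was visualised with Alexa488 anti-GST antibody at 488 nm. Binding intensity is the highest Masliner-normalised natural-log median intensity across replicate spots of either probe orientation.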
row,Sequence,gcPBM binding intensity (ln)
1,ATCATATTTATGTTGGTGCATTATGCATGGATTTTA [GTGCAC_site9795],9.92
2,TTTTTAAATATAAACAAAAAAAAAAAATATATCAAT [XGTACX_negctrl_site328],6.79
3,ATTTTTATTTTTATTTGTACTTATATATTCTTAAGC [XGTACX_site4122],7.12
4,AATACCCAAGGACACACACACACATATATATATATA [CACACA_site8345],9.07
5,ATAATATAAATACAAACACACAATTGTGTCCACATT [CACACA_site6920],6.99
6,TTTTTATTTAATAGTTGTACATTGAAAAATATGTAT [XGTACX_site3025],7.06
7,TGATTAAATAAATATATATATTTATATATTATACAG [CACACA_negctrl_site1596],7.04
8,GCTCTATCAAAAAAATGTACACATATTATCATTCAT [XGTACX_site143],7.15
9,CAAATAAATATTAAAAGTACACACAGATACACTAAT [XGTACX_site3749],7.03
10,ATAATTTATTTTAAAAGTACTCAATTTGCTTTTCTC [XGTACX_site5749],6.85
11,ACCCATAAAAATTATGCACACTTAATAAAGCGAAAT [CACACA_site5722],7.69
12,TCCTCATTTTATCATACACACTTGTTTATATGGGTG [CACACA_site4650],6.96
13,TTTACAAAAAATTATACACACACGTACAGATAAATA [CACACA_site4678],7.34
14,TATATTTATTATAATTGTACATAAAATAAACTAAGA [XGTACX_site4318],7.16
15,AAATAATTAAACATATGTACATATTATATATATATA [XGTACX_site6774],8.97
16,AATATTTATATTTAGTGTACAGAAATAAAAAAAAAA [XGTACX_site6066],7.15
17,CAAAAAAAAAAAAAAACACACATTAAATTAGAAAGA [CACACA_site7271],6.59
18,ATATACATTTAAATGTGTACATAATAAAATAAAAAA [XGTACX_site8170],7.33
19,GCTAATTTATTTTGCAGTACATATATAATAATATAT [XGTACX_site478],6.89
20,ATGTTTTATAAAAGGCGTACACATATGCTTAAGTAA [XGTACX_site6232],7.33
21,CCTTTATTTTATATGTGTACTAAATTGTATATATAT [XGTACX_site8717],7.59
22,CTGAAGGAAAAAGAAAGTACTTTTTTTTTTTTGAAG [XGTACX_site5973],6.8
23,AAAAAAAAAATATCATGTACAAATATAATAAAATTT [XGTACX_site3896],6.69

row,Sequence,gcPBM binding intensity (ln)
1,TATAGCAAAAAATTTACACACATGTTTTTTCTATAC [CACACA_site325],6.79
2,GGCATTTTATGAAGTAGTACCATAAATATTAAAGAT [XGTACX_site5287],7.32
3,AATTAAAATAGTAATACACACTTCATAGGAAATGAT [CACACA_site5045],6.87
4,TATGTATCAAATAAATGTACATATATATATATATAT [XGTACX_site2189],9.1
5,AAATTTTTTATGAACACACAAATACACGCACTCAAA [CACACA_site7286],8.57
6,AATAATAAAATAAAGGCATGCACAATATGCTATAAA [TGCATGCA_site645],7.49
7,TAAAATATATAAAACTGTACATTTTAAAGGCACAAC [XGTACX_site8342],7.55
8,TAAAATTAATTTCTGTTGCACTTATTATTAATTAAC,7.92
9,TTTTTTTTTTTTTGCACACACCATATTTATAGAAAT [CACACA_site5772],7.71
10,ATATTATACCCGTGTACACATTATAACCATATATAA [CACACA_site5933],7.73
11,TATATGTATAGAAAATGTACATATAAATATATATAT [XGTACX_site3420],8.36
12,GTCATATTAATATGTACACACATATTTATATTTATA [CACACA_site6798],7.08
13,TTTTTACTATTTATATGACTAAAAATATATTGAATA [CACACA_negctrl_site188],6.94
14,TAAATTAATAAACAAGTGCATATATATATATATATA,9.66
15,CAAGCACACGGACACACACACACACGCGCACGCACA [CACACA_site6307],8.65
16,TTTTATGTAACATCACGTACTTATATTTAAGTATTC [XGTACX_site7459],7.19
17,CAATTTATTTTTATTACACACTATCCAAGTAATTTC [CACACA_site7402],6.84
18,AAATATATCATACAAAGTACTTGGAATTAATATATA [XGTACX_site8907],6.82
19,AATATAATATAATGCACACATAAAACAAAAAAAAAA [CACACA_site3012],7.4
20,TAATTTTTCCAACTTTGTACAGATATATTAATAAAA [XGTACX_site7856],7.07
21,GTTGATACATGAAGCTGTACATAATATTTGTCATTT [XGTACX_site8628],7.35
22,TCTTTTAAATAACAACATAAATAAATAAATAAATAA [GTGCAC_negctrl_site319],7.36
23,ACATACAAGAATTAAACACACACAAAATATAAATTC [CACACA_site8985],6.85

row,Sequence,gcPBM binding intensity (ln)
1,TCTTGTATATACAGTAGTACTAAAAATTATTAAATA [XGTACX_site7896],7.15
2,TTATGTTGTAAATGCACACATACAAATACAGATACA [CACACA_site4876],7.46
3,GAAAACAAATATGTAGCACACATTCACATAATATAT [CACACA_site8731],7.14
4,ATTATAATGGTAAAGTGTACAAATTTTTATTACACC [XGTACX_site5274],7.15
5,ATAAATATAAAAATTTGTACATATATAGGTATAGGT [XGTACX_site1735],7.44
6,CATTATTTACCGCCGTGTACGTAATGAGAAATTAAA [XGTACX_site4662],6.91
7,TTATTTCAAATTAATTTACACACTTCATACTAAAAG [CACACA_site9039],7.18
8,TAATAAAAAAAGTGCACACACATAATATTTATATAT [CACACA_site7548],10.7
9,TTTATTTATTATTAAAGTACTAAATTACATTATTAT [XGTACX_site6624],6.93
10,TATTTAATTACATGAACACACATTAGATATTTTTAA [CACACA_site7405],6.86
11,TAATTTCTTATGTATTGTACATATAATATATGATAT [XGTACX_site4898],6.92
12,AAAATAAATAGATAAGCACACAAGCATATAGACATA [CACACA_site7958],6.67
13,AATATATTTATGCTCATGCACTTTTTTTTTTTTTTT [GTGCAC_site9654],8.89
14,TATATTTACATTGTAACACACATGAAATATTTATAT [CACACA_site6178],6.91
15,AGAATAAAAAGGAACACACACACACCCATATATATA [CACACA_site3590],7.49
16,TATGTTATATTATAAGGATAAATTTTGATTATATAA [TGCATGCA_negctrl_site600],6.86
17,ATGTACATTTTTTTCACACATACATTAATTTATGAG [CACACA_site5801],7.17
18,TAGACTAATCCCAAAAGTACAGAAAAATTATATTAT [XGTACX_site8663],7.09
19,TATCAATATTAAAAAGTGCAAAATAAAATATAAAAT [GTGCAC_site9486],8.09
20,TATATTATATATTGGGGTACATATATATAAATATAA [XGTACX_site2296],7.14
21,TTATTAAATTTTTTTTGTACTTATATATATATATAT [XGTACX_site2443],8.9
22,TATGAATGTATATGTTGTACATATAAATATTTATAT [XGTACX_site1146],7
23,ATTATTATATAGTGTGCATGCAATATTAATAAAACC [TGCATGCA_site245],8.5

row,Sequence,gcPBM binding intensity (ln)
1,AATAAATATATTACATATATGTGTAGTATTTTTTTA [TGCATGCA_negctrl_site268],6.74
2,TAAGCTTGTAACAGTTTACACACTAATATTTATAAA [CACACA_site3907],6.75
3,ACACATATATATTATTATTATATAATATATATATAT [CACACA_negctrl_site1545],8.63
4,ACATGTTTTATGTGCACACAAAGTTGTTATGAGGTT [CACACA_site4031],8.42
5,ATATAATATTTCATGTGGACACATTTTATGATTGTA [XGTACX_site8770],7.1
6,ATAGTAAACGAAATAAAAAGATTAGCATAATATCCT [CACACA_negctrl_site1730],6.66
7,ATATATTATATATATTACAACTTAAGAATATACATA [TGCATGCA_negctrl_site371],7.2
8,TCCTGTGATTATATAACACACATTATTGCTTATAAG [CACACA_site1518],7.06
9,ATTGTTTATATTGATTGTACTCATTTTTTTTTTATT [XGTACX_site1946],7.19
10,ATATATTGAAAAAAATGTACGTATTTTTTTATGTTA [XGTACX_site4654],7.17
11,ATTATATATATATATACACACACACCCTAAAAATAT [CACACA_site8463],7.53
12,AATCAAAATTAATTAACACACAATTTTAATATTCTT [CACACA_site2063],6.79
13,TATAATTTTCTTAGTAGTACATTTTAAATCTACTAC [XGTACX_site2621],7.08
14,TGTATCCACATATGTACACACATATATCTGTATATG [CACACA_site5668],7.32
15,ACTAATAACAAAAGCTTGCACTTTTTTTTTCCTAAT,7.82
16,TATGTACAAATATGTACACACACACCGATATATATA [CACACA_site4487],7.52
17,AAAAAAAAAAAAAAAAGTACAAAAATTATATTAAGA [XGTACX_site4255],7.38
18,ATATAAGATTACAAAAATTATGTGTAAATATTTAAT [XGTACX_negctrl_site448],7
19,ACCTATATAAATTATACACACAAATATAAATATATA [CACACA_site2843],7.2
20,AATTATATATAACGTAGTACATATTATAAACCACGT [XGTACX_site8816],6.98
